About 1,700 (3.3%) of roughly 52,000 compounds were called active. No stated cut-off is given here; in the data, active means survival mostly below about 52% (no sharp cut-off); inactive means mostly above about 56%. The list shows a part of the results.

This note sets out measurements from PubChem BioAssay AID463173 (ICCB-Longwood Screening Facility, Harvard Medical School, 2010).

This assay concerns Wild type. Kind of assay: S. aureus survival, RN4220 and DeltatarO strains – OD600, teichoic acid synthesis inhibitors, primary screen (AID 463173). To be noted: S. aureus RN4220 wild type/DeltatarO growth, OD600, 18 h, active compounds read low, screened at 18.75 µg/mL (by protocol).
With `CCOC(=O)c1c(C)c(C(=O)NCCc2ccc(OC)cc2)c(C)n1CC`, the survival was inactive: 103%.

Take `CCOc1ccc(CNC(=O)Cn2nc(C)c3sc4ccccc4c3c2=O)cc1`: the survival is inactive: 121%.

For the compound `Clc1nc(Cl)nc(NCCC2=CCCCC2)n1`, the survival was inactive: 114%. Next, `Cc1ccc(C(c2sc3nc(-c4ccco4)nn3c2O)N2CCCCC2)cc1` (stereo not drawn): inactive: 66%; `CC(=O)c1ccc(NC(=O)CSc2nc(-c3ccccc3F)nc3c2c(=O)n(C)c(=O)n3C)cc1`: inactive: 83%.

`C=Cc1ccc(Cn2c(=O)n(-c3ccccc3C)c(=O)c3c4c(sc32)CN(C(C)=O)CC4)cc1`: the survival is inactive: 65%. To `CCc1nn(CC(=O)Nc2c(C)cc(C)cc2C)c(=O)c2cc3sccc3n12` belongs inactive: 133%. As for `Cc1ccc(N(C)S(=O)(=O)c2ccc3[nH]cc(C(=O)O)c(=O)c3c2)cc1C`, the survival was inactive: 83%.

As to `COc1ccc(C)cc1NC(=O)CN1C(=O)CCc2cc(S(=O)(=O)N3CCOCC3)ccc21`, the survival was inactive: 128%. Next, `CCN(CC)N=Nc1ccc(S(=O)(=O)N=C(C)O)cc1`: inactive: 111%. As for `Cc1ccc(C(=O)Nc2ccc3c(c2)N(C)C(=O)c2ccccc2S3)cc1F`, the survival is inactive: 72%. Next, `CCN(Cc1ccccc1)C(=O)Nc1ccc2c(c1)N(C)C(=O)c1ccccc1S2`: inactive: 88%; `CCOC(=O)c1c(-c2ccc(C)cc2)csc1NC(=O)c1cc(=O)c2cc(C)c(C)cc2o1`: inactive: 92%; `O=C(NCc1cccs1)c1ccc(CSc2nc3ccncc3n2Cc2cccc(F)c2)cc1`: inactive: 77%. Next, `Cc1ccc(NC(=O)C2CCN(c3nc4ccccc4[nH]3)CC2)cc1Cl`: inactive: 75%.

Regarding `NC(=O)c1cc(Cl)nc2ccccc12`, the survival was inactive: 109%.

Turning to `O=C(O)C1CCCN1C(=O)/C=C/c1ccco1` (stereo not drawn), the survival was inactive: 100%. To `O=c1[nH]c2ccccc2c(O)c1C1=NS(=O)(=O)c2ccccc2N1` belongs inactive: 113%; to `O=C(NC1(C(F)(F)F)NC(=O)N(CCc2ccccc2)C1=O)c1ccccc1F` (stereo not drawn), inactive: 80%. `COc1cccc(CSc2nc3cc(OC)c(OC)cc3c3nc(CCn4nc(C)cc4C)nn23)c1`: the survival was inactive: 90%. On to `CCOc1ccc2nc(N(Cc3cccnc3)C(=O)c3ccc4c(c3)OCCO4)sc2c1`, for which the survival is inactive: 72%. Next, `COC(=O)c1cc2sc(C)cc2n1Cc1ccc(F)cc1Cl`: inactive: 65%. Next, `Cc1ccc(NC(=O)CCc2c(C)nn(-c3ccc(N4CCCCC4)nn3)c2C)cc1F`: inactive: 146%; `Nc1nc(NC(=S)Nc2ccccc2)cc(=O)[nH]1`: inactive: 103%. Next, `COc1ccccc1CNC(=O)Cn1c(=O)ccc2cc(S(=O)(=O)N3CCC(C)CC3)ccc21`: inactive: 82%; `O=S(=O)(c1ccc(Cl)cc1)c1nc(-c2ccccc2Br)oc1N1CCOCC1`: inactive: 75%; `COC(=O)c1c(C)oc2c1cc(NS(=O)(=O)c1c(C)cc(C)cc1C)c1ccccc12`: active: 25%.

Turning to `Cc1ccc(CCNC(=O)c2nnc(Cc3cccc(F)c3)o2)cc1`, the survival was inactive: 88%.

As to `O=c1n(Cc2ccc(F)cc2Cl)c2ccccc2c2nc(-c3ccccc3)nn12`, the survival is inactive: 140%. To `COc1ccc2c(c1)CCc1c(C(=O)Nc3c(C)nn(Cc4ccccc4Cl)c3C)noc1-2` belongs inactive: 47%; to `CCCCN(CC)CCCNC(=O)c1cn(CC(C)C)c(=O)c2c1c1ccccc1n2C`, inactive: 91%. To `Cn1c(=O)c2c(nc(NCCc3ccccc3)n2Cc2cccc(Br)c2)n(C)c1=O` belongs inactive: 73%; to `CC(C)Oc1ccc(C(=O)Nc2ccc3oc(-c4ccncc4)nc3c2)cc1`, inactive: 132%.

In the case of `COc1ccc(S(=O)(=O)NCC(c2cccs2)S(=O)(=O)c2ccc(C)cc2)cc1F` (stereo not drawn), the survival was inactive: 73%.

As to `Cc1[nH]c2ccc(F)cc2c1CCNC(=O)c1cc2cc(Cl)ccc2oc1=O`, the survival is inactive: 83%. To `CC1Cc2ccccc2N1S(=O)(=O)c1nnc(NC(=O)c2ccccc2Br)s1` (stereo not drawn) belongs inactive: 36%; to `COc1ccc(-c2cn3nc(N4CCCC(C(=O)Nc5ccc(Cl)cc5C)C4)sc3n2)cc1` (stereo not drawn), inactive: 77%; to `COc1cc(NC(=O)C(NC(=O)C2CCC(C)CC2)C(C)C)cc(OC)c1OC` (stereo not drawn), inactive: 92%.

As for `COCCn1c(CNC(=O)c2cc([N+](=O)[O-])ccc2Cl)nc2cccnc21`, the survival was inactive: 72%.

Consider `COc1ccc2nc(SCc3nnc(-c4ccccc4)o3)c(C#N)cc2c1`, for which the survival is inactive: 111%. As to `COc1ccc(Cl)cc1NS(=O)(=O)c1c(C)nc2scc(C)n2c1=O`, the survival was inactive: 89%. To `COc1ccc(C(=O)Nc2onc3c2CCCC3)cc1` belongs inactive: 75%; to `COCCCn1c(=N)c(C(=O)NC2CCCCC2)cc2c(=O)n3ccccc3nc21`, inactive: 78%; to `COc1ccc(NC(=O)Cn2cnc3c(nc4n3CCCCC4)c2=O)c(OC)c1`, inactive: 82%. Next, `Cc1nnc(NC(=O)C(C)N2CCCC2)s1` (stereo not drawn): inactive: 103%; `CC(C)(C)c1nc(NCC2CCCO2)c2nnn(Cc3ccccc3Cl)c2n1` (stereo not drawn): inactive: 119%.

In the case of `Cc1c(CNC2CCCCCC2)c(C(=O)O)c(C)n1Cc1c(F)cccc1Cl`, the survival was inactive: 86%. Next, `CCOC(=O)c1ccccc1NC(=O)Cc1c(C(=O)O)c(C)cn1C`: active: -1%.

Consider `CCOC(=O)c1ccc(N2C(=O)c3n[nH]c(C)c3C2c2ccc(O)c(OC)c2)cc1` (stereo not drawn), for which the survival is inactive: 73%. Next, `COc1ccc(N2CCN(C(=O)Cn3cnc4sc(C)c(S(=O)(=O)N5CCC(C)CC5)c4c3=O)CC2)cc1`: inactive: 152%; `Cc1cccc(CS(=O)(=O)CC2Nc3ccc(C(=O)NCc4ccccc4)cc3NC2=O)c1` (stereo not drawn): inactive: 71%. With `Cc1ccc(-n2ncc(C(=O)N3CCN(c4ccccn4)CC3)c2C2CCN(C(=O)OC(C)(C)C)CC2)cc1C`, the survival is inactive: 59%. Consider `Cc1cc(=O)oc2c3c(ccc12)OCN(Cc1ccccc1Cl)C3`, for which the survival was inactive: 83%. With `CCOC(=O)c1nc(Nc2ccc(OC)cc2)c2ccccc2n1`, the survival is inactive: 143%. In the case of `Nc1ccc2nc(SCCOc3ccccc3)sc2c1`, the survival was inactive: 108%. To `O=S(=O)(NCc1ccc(F)cc1)c1ccc2[nH]c3c(c2c1)CCCCC3` belongs inactive: 55%; to `Cc1ccccc1Nc1c(-c2cccc(O)c2)nc2ccc(Br)cn12`, inactive: 75%; to `CC(C)CCNC(=O)c1ccc(Cn2c(=O)c3cccn3c3cccnc32)cc1`, inactive: 87%.

As to `Cc1cccc(Nc2nc(Nc3cccc(C)c3)nc(N3CCOCC3)n2)c1`, the survival was inactive: 31%.

On to `Cc1cc2c(n1-c1ccc(C(=O)NCC(C)c3ccccc3)cc1)CCCC2` (stereo not drawn), for which the survival is inactive: 77%. Next, `CCOc1ccc(CNC(=O)c2ccc3c(c2)sc2nc(-c4ccc(OC)cc4)cn23)cc1`: inactive: 103%. Next, `COc1cc(OC)c(NC(=O)CSC2=Nc3ccccc3N=C(c3ccc(F)cc3)C2)cc1Cl`: inactive: 65%; `Cc1ccc(-c2nn(-c3cccc([N+](=O)[O-])c3)c3c2cnc2ccc(F)cc23)cc1`: inactive: 63%.

Regarding `Cc1sc(C2C(C#N)=C(N)N(c3cccc(Cl)c3)C3=C2C(=O)CCC3)cc1CN1CCOCC1` (stereo not drawn), the survival was inactive: 101%.

Turning to `Cc1ccc(CNC(=O)c2cc(S(=O)(=O)N3CCCC(C)C3)cn2C)cc1` (stereo not drawn), the survival was inactive: 128%. Next, `CCN(CCCNC(=O)c1ccc(Sc2ccc(C)cc2)c(NC(C)=O)c1)c1cccc(C)c1`: inactive: 71%; `COc1ccc(-n2c(=O)c3c(c4cc(OC)ccc4n3C)n(CC(=O)NCC3CCCO3)c2=O)cc1` (stereo not drawn): inactive: 83%; `COc1ccc(-c2n[nH]c3c2C(c2ccc(Cl)cc2Cl)NC3=O)cc1` (stereo not drawn): active: 0%. On to `CC(CCO)Nc1nc2c(c(=O)n(C)c(=O)n2C)n1Cc1ccc(Br)cc1` (stereo not drawn), for which the survival is inactive: 133%. To `Cc1ccc(F)cc1NC(=O)CCc1c(C)nn(-c2ccc(N3CCCCC3)nn2)c1C` belongs inactive: 66%; to `CCOc1cccc(C(=O)Nc2ccc3oc(-c4ccc(C(C)(C)C)cc4)nc3c2)c1`, inactive: 60%; to `COc1ccc(NC(=O)Cn2c(=O)n(-c3cccc(C)c3)c(=O)c3c2c2cc(C)ccc2n3C)cc1OC`, inactive: 85%.

Consider `Cc1ccc2oc(-c3ccc(C)c(NC(=O)c4ccc5c(c4)OCCO5)c3)nc2c1`, for which the survival is inactive: 77%. Next, `Cc1ccc(S(=O)(=O)Nc2ccc(-c3ccc(N4CCCCCC4)nn3)cc2)cc1C`: inactive: 131%; `C=CCNC(=O)c1c(O)c2cccc3c2n(c1=O)CCC3`: inactive: 102%; `C#CCSc1nc2sc3c(c2c(=O)n1-c1cccc(OC)c1)CCN(C(C)=O)C3`: inactive: 58%. To `CC(C(=O)O)N1C(=O)NC2NC(=O)NC21` (stereo not drawn) belongs inactive: 107%; to `CCc1nn2c(-c3ccco3)ccnc2c1-c1ccc(F)cc1`, inactive: 71%; to `CCOC(=O)c1ccc(-c2ccc(/C=C(\C#N)C(=O)Nc3c(C)cccc3Cl)o2)cc1`, inactive: 83%. Next, `COc1cc(Cl)c(NC(=O)c2cc(S(=O)(=O)N3CCOCC3)cn2C)c(OC)c1`: inactive: 71%. Take `CCOC(=O)C(C)ON1C(=O)c2ccccc2C1=O` (stereo not drawn): the survival was inactive: 96%. To `FC(F)(F)COc1nc(OCC(F)(F)F)nc(N(c2ccccc2)c2ccccc2)n1` belongs inactive: 121%; to `CC1CCN(c2ccc(-c3cccc(NS(=O)(=O)c4ccc(Cl)s4)c3)nn2)CC1`, inactive: 71%; to `COCCn1c(SCC(=O)c2ccc(OC)cc2)nc2cc(C(=O)NC3CCCC3)ccc2c1=O`, inactive: 83%. To `CCCOc1ccc(-c2nonc2NC(=O)COc2ccc(C)cc2)cc1OCCC` belongs inactive: 116%.

As for `CC(C)(C)NC(=O)Cn1cc(S(=O)(=O)Cc2ccc(F)cc2)c2ccccc21`, the survival is inactive: 76%. Regarding `CC(=O)c1c(C)oc2c(Cl)cc(NS(=O)(=O)c3cc(C)c(C)cc3C)cc12`, the survival was inactive: 143%. To `CCOC(=O)CNC(c1ccccc1)c1cc(Br)ccc1NC(=O)c1ccc(Cl)cc1` (stereo not drawn) belongs inactive: 69%.
